Experimental data reported in PubChem BioAssay AID488969 (Vanderbilt High Throughput Screening Facility, 2010).
In all, about 110,000 compounds were measured (“z-score”: median about -0.1, highest 2% from about 2 on). This is one part of the list.

target: Metabotropic glutamate receptor 8 (Rattus norvegicus) (UniProt P70579); assay: rat mGluR8 modulators via GIRK flux, primary screen, cell-based, thallium flux, HTS (AID 488969); settings: HEK293 rat mGluR8, GIRK (G protein-gated inwardly rectifying potassium channel) thallium flux, FluoZin2; at 10 µM; stronger effect = higher value; submaximal glutamate (EC20) added with thallium
Sequence of UniProt P70579 (P70579 whole entry, looked up): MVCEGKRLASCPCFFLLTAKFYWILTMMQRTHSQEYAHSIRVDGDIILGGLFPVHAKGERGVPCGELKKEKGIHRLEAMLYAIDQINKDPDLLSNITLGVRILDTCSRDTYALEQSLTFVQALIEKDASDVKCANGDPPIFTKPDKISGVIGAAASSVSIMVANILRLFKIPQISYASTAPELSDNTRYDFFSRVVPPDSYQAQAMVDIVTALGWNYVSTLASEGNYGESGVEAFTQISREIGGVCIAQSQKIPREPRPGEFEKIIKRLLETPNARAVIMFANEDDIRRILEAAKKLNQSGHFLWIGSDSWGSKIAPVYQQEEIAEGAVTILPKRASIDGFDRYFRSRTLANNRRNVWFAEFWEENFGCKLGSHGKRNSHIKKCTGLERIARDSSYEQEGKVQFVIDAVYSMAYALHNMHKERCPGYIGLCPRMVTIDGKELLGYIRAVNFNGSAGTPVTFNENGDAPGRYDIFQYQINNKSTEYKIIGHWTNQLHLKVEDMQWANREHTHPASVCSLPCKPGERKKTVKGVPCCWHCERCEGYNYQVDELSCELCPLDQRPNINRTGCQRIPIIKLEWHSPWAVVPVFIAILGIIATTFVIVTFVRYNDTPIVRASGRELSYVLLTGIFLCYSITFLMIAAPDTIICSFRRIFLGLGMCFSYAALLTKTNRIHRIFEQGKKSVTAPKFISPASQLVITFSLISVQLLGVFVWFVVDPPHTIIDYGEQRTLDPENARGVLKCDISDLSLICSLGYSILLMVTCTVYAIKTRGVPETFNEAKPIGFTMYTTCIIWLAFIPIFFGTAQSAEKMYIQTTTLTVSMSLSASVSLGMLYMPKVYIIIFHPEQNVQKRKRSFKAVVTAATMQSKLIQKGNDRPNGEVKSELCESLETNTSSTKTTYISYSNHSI

Row | Compound | z-score
1 | Cc1ccc(C(=O)N/C(=C\c2cccs2)C(=O)NCCCn2ccnc2)cc1 | -0.313
2 | O=C1CSC(c2ccccc2)N1c1nnc(C23CC4CC(CC(C4)C2)C3)s1 (stereo not given) | -0.254
3 | Cc1ccc(NC(=O)CSc2nnc(CCCCCNC(=O)OC(C)(C)C)o2)c(C)c1 | 0.493
4 | CC(C)C(NC(=O)C(c1ccccc1)c1ccccc1)c1nc2ccccc2[nH]1 (stereo not given) | 0.0682
5 | COCCn1c(C)cc(C(=O)CSc2nnc3ccccn23)c1C | 0.206
6 | O=C1/C(=C\Nc2ccc(Cl)cc2)CCN1c1ncccn1 | 0.111
7 | CCOc1ccccc1NC(=O)COC(=O)c1cccc(-c2ccc(OC(C)=O)cc2)c1 | 0.391
8 | O=C1c2ccccc2C(=O)N1CCCN1CCN(CCCN2C(=O)c3ccccc3C2=O)CC1 | 0.393
9 | COc1ccc(OC)c(-c2csc(NC(=O)c3ccc(OCC4CCCO4)cc3)n2)c1 (stereo not given) | -0.558
10 | CCOc1ccccc1NC(=O)CCC(=O)Nc1ccccc1OCC | -0.795
11 | Cc1nn(-c2ccccc2)c(C)c1NC(=O)COc1ccc(Br)cc1Cl | -0.186
12 | Nc1cc(Cl)nc(N/N=C/c2ccccc2[N+](=O)[O-])n1 | 1.31
13 | NC(=O)COc1ccccc1/C=C1/SC(=O)N(CC(=O)N2CCc3ccccc3C2)C1=O | -0.526
14 | CC(=O)Nc1ccccc1-c1ccc(C)o1 | -0.135
15 | Cc1cc(C)c(C)c(OC(=O)c2sc(Cl)nc2C)c1 | -0.103
16 | CC(C)[C@H](NC(=O)c1ccc(F)cc1)C(=O)OCC(=O)NC(=O)c1cccn1C | 1.24
17 | Cc1ccc(NC(=O)c2cc([N+](=O)[O-])ccc2NCc2cccnc2)cc1Cl | 0.144
18 | CCCCCCn1cnc2c(c1=O)c1nc3ccccc3nc1n2Cc1cccs1 | -1.43
19 | Cc1nnc2n1N=CC=C(c1ccccc1)S2 | 0.236
20 | Cc1nc(C)c(C(=O)Nc2ccccc2-c2ccccc2)o1 | -0.0653
21 | COc1ccc(N(CC(=O)NCc2cccnc2)S(=O)(=O)c2c(C)nn(C)c2C)cc1 | 0.022
22 | CS(=O)(=O)N1N=C(c2ccco2)CC1c1ccccc1 (stereo not given) | -0.108

Row | Compound | z-score
23 | CC(C)NS(=O)(=O)c1ccc(NC(=O)C2CC3C=CC2C3)cc1 (stereo not given) | -0.0807
24 | O=c1oc2ccccc2c(N2CCCC2)c1CN1CCCC1 | -0.557
25 | O=C(NCC1CCN(c2ccc(S(=O)(=O)N3CCOCC3)cc2)CC1)c1cccc(Cl)c1 | 0.0384
26 | CCN(CC)S(=O)(=O)c1ccc(NC(=O)Cn2cnc3ccccc3c2=O)cc1 | -0.403
27 | COc1cc(NC(=O)CCCC(=O)OCC(F)(F)C(F)F)nc(OC)n1 | -1.96
28 | Cc1c(/C=N/NC(=O)c2sc3ccccc3c2Cl)cnn1C | -0.419
29 | CC(C)(C)Nc1cccccc1=O | 0.435
30 | CC(O)(CS(=O)(=O)Cc1ccccc1Cl)C(=O)Nc1cccc(C(F)(F)F)c1 (stereo not given) | 0.0796
31 | O=C(CSc1ncnc2c1nnn2-c1ccc(F)cc1)N1CCN(c2ccccc2)CC1 | 0.315
32 | CC1CC(C)(C)NCc2ccccc21 (stereo not given) | -0.185
33 | Cc1cccc(CN2CCNC2=O)c1 | 0.122
34 | Cc1ccc(C(=O)NCCc2nnc3ccc(SCC(=O)Nc4c(C)cc(C)cc4C)nn23)cc1 | -0.547
35 | Cc1cc(NC(=O)CS(=O)(=O)c2cn(Cc3ccc(F)cc3)c3ccccc23)no1 | -0.23
36 | CN(C)c1nc(N)nc(CSc2nnnn2-c2ccc(C(=O)O)cc2)n1 | 0.156
37 | CCC(=O)Nc1cc(C(=O)OCC(=O)c2ccc(Cl)cc2Cl)ccc1C | 0.419
38 | COc1ccc(/C=C(/NC(=O)c2ccccc2)C(=O)N/N=C/c2cccs2)cc1OC | 0.206
39 | Cc1cc(NC(=O)C2C3C(=O)N(Cc4ccc(Cl)cc4)C(C(=O)NC4CCCCC4)C34C=CC2(C)O4)no1 (stereo not given) | -0.174
40 | Cc1ccc(CSc2nnc(-c3ccc4c(c3)OCO4)o2)cc1 | -0.118
41 | O=c1cc(CSc2nc(NCc3ccccc3)c3ccccc3n2)nc2ccc(Cl)cn12 | -0.232
42 | O=S(=O)(N1CCCCCC1)N1CCN(S(=O)(=O)N2CCCCC2)CC1 | -0.247
43 | CC1CCCCN1CCNc1nc(=S)[nH]c2ccccc12 (stereo not given) | -0.105
44 | Cc1ccc(-c2nc3ncccc3o2)cc1NC(=O)Cc1ccc(Cl)cc1 | 0.497

Row | Compound | z-score
45 | CC(C)(C)C(=O)N=C1SC2CS(=O)(=O)CC2N1c1ccc2c(c1)OCO2 (stereo not given) | -0.0529
46 | O=C(O)CSc1nnc(-c2ccncc2)n1Cc1ccccc1 | -0.0551
47 | CCCCC(=O)Nc1c(C)cc(C)cc1Cl | -0.441
48 | COc1cccc(NC2C=CS(=O)(=O)C2)c1 (stereo not given) | -0.155
49 | COc1ccc(N(CC(=O)Nc2ccccc2C(=O)N2CCOCC2)S(=O)(=O)c2ccc(F)cc2)cc1 | -0.218
50 | O=C1NC(=O)C2(CCC(C(=O)O)C2)N1 (stereo not given) | 0.268
51 | CCn1c2ccccc2c2nnc(SCC(=O)NC3CCS(=O)(=O)C3)nc21 (stereo not given) | -0.103
52 | Cc1ccc(N=C(NOCc2ccc(Cl)cc2Cl)c2nonc2N)c(C)c1 | -0.408
53 | CCOC(=O)c1cc(NC(=O)c2ccoc2C)cc(C(=O)OCC)c1 | -2.39
54 | O=C(Nc1ccc(N2CCCCC2)c(Cl)c1)c1cccnc1 | -0.0422
55 | O=C(/C=C/c1cccs1)Nc1ccc(N2CCOCC2)c(S(=O)(=O)Nc2ccccc2Cl)c1 | -0.602
56 | CC(C)n1cc(/C=C2\NC(=O)N(c3cccc(Cl)c3)C2=O)c2ccccc21 | -0.0208
57 | CC(C)CCOC(=O)C1C(c2ccccc2)C(C(=O)O)C1c1ccccc1 (stereo not given) | 0.224
58 | O=C(CSc1nc2ccccc2n1CC(=O)N1CCOCC1)N1CCCC1 | 0.588
59 | O=C(CCSc1ccccc1)Nc1ncccn1 | 1.14
60 | CC(C)(C)N1C(=O)Cc2c1nc(N)c1c(N)nc(N3CCCCC3CO)c(C#N)c21 (stereo not given) | -1.02
61 | Cc1cc2cc(CN(Cc3cccs3)C(=S)NCC3CCCO3)c(=O)[nH]c2cc1C (stereo not given) | -0.14
62 | O=C(c1cc(-c2ccco2)on1)N1CCN(C(c2ccccc2)c2ccccc2)CC1 | -0.155
63 | Cn1c(CCN2CCCCC2)nc2cc([N+](=O)[O-])ccc21 | -0.206
64 | Cn1c2ccccc2n2c(=O)c(=O)n(CC(=O)c3ccc(F)cc3)nc12 | -0.37
65 | CC1Cc2ccccc2N1C(=O)COC(=O)C1(c2ccccc2F)CCCC1 (stereo not given) | -0.536
66 | Nc1ccc(Cc2nc3c(ccc4ccccc43)[nH]2)cc1 | -0.049

Row | Compound | z-score
67 | C=CCNc1nc(C2(C)CC3(CC(C)(C)OC3=O)C(=O)O2)cs1 (stereo not given) | -0.181
68 | Cc1ccc(OCCCCn2cnc3ccccc32)c(C)c1 | -0.0373
69 | CC(/C=N/NC(=O)c1cc(-c2ccc(C)s2)[nH]n1)=C\c1ccccc1 | -0.801
70 | Oc1ccc(NCc2ccccc2OCc2ccccc2F)cc1 | -0.322
71 | Cc1ccc2nc(-c3sc4nc(C)ccc4c3N)[nH]c2c1 | -2.05
72 | COc1cccc(OC)c1C(=O)Nc1ccccc1C(=O)N1CCOCC1 | -0.216
73 | COc1cc2nc(C3CCC3)n(NC(=O)C3CCC(OC)CC3)c(=O)c2cc1OC (stereo not given) | 1.79
74 | CC(=O)Nc1ccccc1NC(=O)CN(C)S(=O)(=O)c1ccc(C)cc1 | -0.197
75 | Cc1cc(C(F)(F)F)nn1Cc1ccc(C(=O)NCc2ccco2)o1 | -0.563
76 | O=C(NCCc1ccncc1)Nc1ccc(Cl)cc1 | 0.11
77 | O=C(CC(Cc1ccccc1)C(=O)O)NCCc1ccc2c(c1)OCO2 (stereo not given) | -0.12
78 | CCOC(=O)C1CCCCN1Cc1cccc(F)c1 (stereo not given) | -0.455
79 | COCCCNC(=O)c1ccc(-n2nc(C(F)(F)F)cc2-c2cccs2)cc1 | -0.291
80 | CC(=O)Nc1ccc(S(=O)(=O)NCCSCc2cccc(Cl)c2)cc1 | -0.049
81 | O=C(CCN1C(=O)c2ccccc2C1=O)Nc1ccc2c(c1)OCCO2 | 0.141
82 | COC(=O)c1ccccc1NC(=O)c1ccc(-c2ccc(Br)cc2)o1 | -0.235
83 | COc1ccc(-c2c3c(=O)n(C)c(=O)n(C)c3cn2C2CCCCC2)cc1 | -0.528
84 | Cc1ccc(OCCn2cc(Br)c(=O)[nH]c2=O)cc1 | -0.137
85 | O=C(CN1C(=O)CCC1=O)Nc1ccc2c3c(cccc13)CC2 | -0.268
86 | O=C(CSc1nnnn1C1CCCCC1)N1CCc2ccccc21 | 0.136
87 | Cc1ccc(S(=O)(=O)N2CCN(C(=O)CC3CCCC3)CC2)cc1 | 0.49
88 | O=C(COc1ccc(S(=O)(=O)NC2CCCCC2)cc1Cl)NCc1ccc2c(c1)OCO2 | -0.138

Row | Compound | z-score
89 | Nc1nc(-c2nc3ccccc3[nH]2)cs1 | 0.263
90 | CC1(C)CC(=O)C2=C(C1)OC1=C(C2)C(=O)CC(C)(C)C1 | -0.305
91 | COCc1nc2ccccc2n1Cc1ccccc1Br | -0.624
92 | C=CCOc1ccc(CNn2cn[nH]c2=S)cc1 | -0.0745
93 | FC(F)(F)c1cccc(NC(=S)NCC2COc3ccccc3O2)c1 (stereo not given) | -0.0718
94 | O=C(C1CCCN(S(=O)(=O)c2cnc[nH]2)C1)N1CC(=O)N(CCc2ccccc2)C(=O)C1 (stereo not given) | -0.371
95 | N/C(=N\OC(=O)COc1ccc2ccccc2c1)c1cccnc1 | -0.592
96 | CCn1nc(C)c(C(=O)Nc2cc(Oc3ccc(Cl)cc3)cc([N+](=O)[O-])c2)c1C | -0.261
97 | Oc1ccc(Nc2ncnc3scc(-c4ccccc4)c23)cc1 | -0.239
98 | COC(=O)C1=C(NC(=O)C2CCCCC2)CCS1 | 0.125
99 | COc1cccc(NC(=O)N2CCN(c3ccc(C(F)(F)F)cn3)CC2)c1 | -0.587
100 | Cc1occc1C(=O)N1CCN(c2ncccn2)CC1 | -0.105
101 | Cc1cc(C)n(-c2cc(C(C)(C)C)nc3c(-c4ccc(Cl)cc4)cnn23)n1 | 0.19
102 | CCCOc1ccc(OCCSc2nnc(N)s2)cc1 | -0.509
103 | Cc1ccc(S(=O)(=O)N2CC3CCCN3c3ccc(C(F)(F)F)cc32)cc1 (stereo not given) | -0.64
104 | O=C(Nc1ccc2c(c1)OCO2)c1ccc2c(c1)OCO2 | -0.329
105 | CCC(CC)NC(=O)/C=C/c1cccc([N+](=O)[O-])c1 | -0.231
106 | COc1ccc(C2/C(=C(/O)c3ccc(Cl)cc3)C(=O)C(=O)N2CCN2CCOCC2)c(OC)c1 (stereo not given) | -0.534
107 | CCOC(=O)Cc1c(Sc2ccccc2)c2ccccc2n1C | -0.171
108 | Cc1nc(P(=O)(c2ccccc2)c2ccccc2)c(N2CCOCC2)o1 | -0.389
109 | Cc1cc(=O)[nH]c(SCc2cccc(Br)c2)n1 | -2.81
110 | O=C(c1cccs1)N1CCN(Cc2cccc([N+](=O)[O-])c2)CC1 | -0.213
